According to the supplement of paper PMC10338343:
± gives the standard deviation. The list shows a part of the results, in another mix than the full data.

tested on: MIWI (PIWIL1) piRISC loaded with L1MC piRNA (30 nt); assay: pre-steady-state target cleavage rate (min^-1); MIWI and MILI are mouse PIWI proteins and EfPiwi is from a freshwater sponge; tags in brackets are library labels; higher = faster piRNA-guided slicing of the target; conditions: guide: L1MC piRNA 5'p-UAACUAAAUACUAUGCAAGCUGUAGGUCCU; auxiliary factor: 500 nM mouse GTSF1
Experimental: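 Cleave-'n-Seq: a library of target RNAs (target site embedded in constant flanks, ACAGCATTCCGCGTTAGTGATATCCG... 5' flank; DNA-blocked outside the site) at 0.1 nM was incubated with 1 nM active mouse MILI or MIWI piRISC (synthetic 5'-monophosphorylated piRNA guide) with or without 500 nM mouse GTSF1 at 33 °C for 1 min to 16 h. Uncleaved targets were sequenced and normalised to non-target controls, and the pooled three trials were fitted to a burst-and-steady-state model to give the pre-steady-state cleavage rate (min^-1; k3 is constrained to at most 1e-4). Sequence is the target site only; target names encode pairing extent (gX:gY) and contiguous / 1-mismatch / 2-mismatch / bulge geometry. Fits with R² ≤ 0 are excluded.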

Sequence | pre-steady-state target cleavage rate
UCCUGGAUCAGGAAGCAUAGUAUUUAGUUA | 0.00993 ± 0.0028
UCCUGGUAGAGCUUGCAUUGUAUUUAGUUA | 0.531 ± 0.024
AGGACCUACAGCUUGACAUAGUAUUUAGUUA | 1.07 ± 0.093
UCCACCUACAGCUUGGUUAGUAUUUAGAAA | 0.248 ± 0.048
UCGACCUACAGCUUGCAUAGUAUUAUCUAA | 0.463 ± 0.058
UCCACCUACAGCAUGCAUAGUAAUUAGUUA | 0.597 ± 0.05
UCCUGGAUGUGCUUGCAUAGAAUUUUGUUA | 0.0118 ± 0.0055
UCCUGGAUCAGCUUGCAUUGUAUUUAGUUA | 0.625 ± 0.038
AGGACCUACAGCUUGCAUAGUAUUCAGUUA | 0.795 ± 0.066
AGGACCUACAGCUUGCAUACAUUUUAGUUA | 0.0106 ± 0.0061
UGGACCAUGAGCUUGCAUAGUAUUUAGUUA | 0.994 ± 0.067
UGGACCUACAGGAUGCAUAGUAUUUACAAA | 0.216 ± 0.039
UCCUGGAUGUGCUUGCAUAGUGUUUAGUUA | 0.245 ± 0.019
UCGACCUACAGCUUGCAUAGUAUUUGAGUUA | 0.59 ± 0.045
UCCUGGAACAGCUUGCAUAGAAUUUAGUUA | 0.269 ± 0.03
UGGACCUACAGCUUGCAUUGUAUUAAGUUA | 0.575 ± 0.04
UCCACCUACAGCUUGCAUAGUAUUUAGUUUA | 0.907 ± 0.047
AGGACCUACAGCUUGCAAUGUAUUUAGAAA | 0.145 ± 0.025
AGGACCUACAGCUUGCAUAGUAUAUUGUUA | 0.498 ± 0.05
UCCUGGAUGUCGAACGUAUGAAUUUACUUA | < 0.0001
UCCACCUACAGCUUGCAUAGUAUUUACAUA | 0.288 ± 0.043
AGGACCUACAGGUUGCAUAGAAUUUAGUUA | 0.341 ± 0.03
AGGACCUACAGCUACCAUAGUAUUUAGUUA | 0.626 ± 0.043

same assay, conditions: guide: L1MC piRNA 5'p-UAACUAAAUACUAUGCAAGCUGUAGGUCCU; auxiliary factor: none (no GTSF1)

Sequence | pre-steady-state target cleavage rate
UCCUGGUAGAGCUUGCAUUGUAUUUAGUUA | 0.0249 ± 0.0074
AGGACCUACAGCUUGACAUAGUAUUUAGUUA | 0.0105 ± 0.0047
UCCACCUACAGCAUGCAUAGUAAUUAGUUA | 0.00874 ± 0.0024
UCCUGGAUGUGCUUGCAUAGAAUUUUGUUA | 0.00328 ± 0.0031
UCCUGGAUCAGCUUGCAUUGUAUUUAGUUA | 0.0257 ± 0.0063
AGGACCUACAGCUUGCAUAGUAUUCAGUUA | 0.0492 ± 0.0097
UGGACCAUGAGCUUGCAUAGUAUUUAGUUA | 0.0437 ± 0.0085
UCCUGGAUGUGCUUGCAUAGUGUUUAGUUA | 0.0403 ± 0.01
UCGACCUACAGCUUGCAUAGUAUUUGAGUUA | 0.0387 ± 0.0088
UCCUGGAACAGCUUGCAUAGAAUUUAGUUA | 0.0275 ± 0.0063
UGGACCUACAGCUUGCAUUGUAUUAAGUUA | 0.0132 ± 0.0041
UCCACCUACAGCUUGCAUAGUAUUUAGUUUA | 0.0632 ± 0.014
AGGACCUACAGCUUGCAUAGUAUAUUGUUA | 0.0335 ± 0.0055
UCCACCUACAGCUUGCAUAGUAUUUACAUA | 0.0115 ± 0.0036
AGGACCUACAGGUUGCAUAGAAUUUAGUUA | 0.016 ± 0.0037
AGGACCUACAGCUACCAUAGUAUUUAGUUA | 0.00375 ± 0.003
